Drawing on PubChem BioAssay AID360 (National Center for Advancing Translational Sciences (NCATS), 2006), this text covers Potency for 58 compounds.

Each structure is given as a SMILES string. Among all 48,000 compounds or so, about 550 (1.1%) were called active. About 4% were inconclusive and are not listed. No stated cut-off is given here; in the data, active means potency below about 15 µM; inconclusive means mostly about 16 µM to 33 µM; inactive means weaker than that. The list shows a part of the results. Bounds are passed on as bounds.
Potency means the concentration at half of the fitted maximal effect.

The target of this test is Lysosomal acid glucosylceramidase (Homo sapiens) (UniProt P04062). Briefly: Glucocerebrosidase.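 Further: the screen sought inhibitors.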 The note with it: purified enzyme, resorufin glucoside fluorescence (screen aimed at inhibitors), 20 min. Put shortly: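 Normal human glucocerebrosidase (0.2 nM final) was assayed with resorufin β-D-glucopyranoside (30 uM final) in 50mM citric acid/KH2PO4, 10mM sodium taurocholate, 0.01% tween-20, pH 5.9. Compounds were titrated; fluorescence (Ex 548, Em 600) read after 20 min at RT.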
Chain of UniProt P04062 (P04062 whole entry, looked up): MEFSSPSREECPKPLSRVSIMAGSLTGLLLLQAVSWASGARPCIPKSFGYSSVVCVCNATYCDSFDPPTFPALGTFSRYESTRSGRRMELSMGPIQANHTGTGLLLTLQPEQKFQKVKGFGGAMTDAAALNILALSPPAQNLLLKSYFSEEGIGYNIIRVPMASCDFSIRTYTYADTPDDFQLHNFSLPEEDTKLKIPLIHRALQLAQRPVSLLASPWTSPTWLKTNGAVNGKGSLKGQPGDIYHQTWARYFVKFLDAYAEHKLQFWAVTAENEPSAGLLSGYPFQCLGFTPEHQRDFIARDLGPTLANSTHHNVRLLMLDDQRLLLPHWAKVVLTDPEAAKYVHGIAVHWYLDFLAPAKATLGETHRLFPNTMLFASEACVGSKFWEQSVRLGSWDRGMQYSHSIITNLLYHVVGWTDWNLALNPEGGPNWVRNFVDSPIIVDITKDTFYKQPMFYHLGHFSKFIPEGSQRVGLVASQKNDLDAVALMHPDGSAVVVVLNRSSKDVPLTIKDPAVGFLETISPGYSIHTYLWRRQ
Take `Cc1[nH]c2ccccc2c(=O)c1CN(C)Cc1ccccc1`: the Potency is inactive: > 76.9 µM.

In the case of `CCOc1ccc2nc(NC(=O)CSc3nc4c(c(=O)n(C)c(=O)n4C)n3CC)sc2c1`, the Potency is inactive: > 76.9 µM.

On to `Cc1nn(CC(O)COc2ccc3c(c2)CCC3)c(C)c1C` (stereo not drawn), for which the Potency is inactive: > 76.9 µM.

Take `O=c1c(N2CCOCC2)nsn1Cc1ccccc1`: the Potency is inactive: > 76.9 µM.

For `c1cn(CC2(Cn3ccnc3)COC2)cn1`, the Potency was inactive: > 76.9 µM.

Take `Cc1cc(NC(=O)CCC(=O)N(CCC(C)C)CC(=O)NCC2CCCO2)no1` (stereo not drawn): the Potency is inactive: > 76.9 µM.

Consider `CC(C)N1C(=O)CCC1C(=O)NC1CCCC1` (stereo not drawn), for which the Potency is inactive: > 76.9 µM.

Consider `O=C(CSc1nnc(-c2cnccn2)n1Cc1ccco1)Nc1ccc(Br)cc1`, for which the Potency was inactive: > 76.9 µM.

For `O=C(COc1ccccc1)N1CCN(c2nnc(-c3ccccc3)c3ccccc23)CC1`, the Potency was inactive: > 76.9 µM.

For the compound `CCCc1nnc(NC(=O)c2c(O)c3cccc4c3n(c2=O)CC4)s1`, the Potency is inactive: > 76.9 µM.

Take `CCCCCCc1ccc(OCC(=O)O)cc1OCC(=O)O`: the Potency was inactive: > 76.9 µM.

Turning to `CC1CCCN(C(=O)COC(=O)c2n[nH]c3ccccc23)C1` (stereo not drawn), the Potency was inactive: > 76.9 µM.

For the compound `Cc1ccc(CSC2=Nc3ccccc3C3=NC(CCC(=O)NCc4ccco4)C(=O)N23)cc1` (stereo not drawn), the Potency is inactive: > 76.9 µM.

For the compound `CCN(c1cccc(C)c1)S(=O)(=O)c1ccc2c(c1)CCN2C(C)=O`, the Potency is inactive: > 76.9 µM.

Regarding `CCOC(=O)CCCNS(=O)(=O)c1c(C)ccc2nsnc12`, the Potency is inactive: > 76.9 µM.

Turning to `O=C(c1ccccc1)N1CC(COc2ccccc2)OC(c2cccnc2)O1` (stereo not drawn), the Potency is inactive: > 76.9 µM.

Turning to `CCOC(=O)C1(N(CC)CC)Sc2cc(C)ccc2NC1=O` (stereo not drawn), the Potency was inactive: > 76.9 µM.

With `CCN(CC)C(=O)C1CCCN(Cc2ccc(F)c(F)c2)C1` (stereo not drawn), the Potency is inactive: > 76.9 µM.

On to `Cc1[nH]nc2c1C(c1ccoc1)C(C#N)=C(N)O2` (stereo not drawn), for which the Potency is inactive: > 76.9 µM.

Turning to `COc1nc(-c2ccccc2)ccc1-c1noc(-c2ccc(F)cc2)n1`, the Potency was inactive: > 76.9 µM.

In the case of `Cc1cc(C)cc(N(C(=O)C2CCCC2)C2C=CS(=O)(=O)C2)c1` (stereo not drawn), the Potency was inactive: > 76.9 µM.

For the compound `COC(=O)CN(Cc1ccco1)S(=O)(=O)c1ccccc1`, the Potency was inactive: > 76.9 µM.

Take `COc1ccc(CCNC(=O)c2nnn(CC(=O)Nc3ccccc3)c2N)cc1OC`: the Potency was inactive: > 76.9 µM.

As to `c1ccc2sc(SCc3ccc(-c4nnco4)cc3)nc2c1`, the Potency is inactive: > 76.9 µM.

`COc1cc(OC)c(-c2nc3cnccc3n2C)cc1OC`: the Potency was inactive: > 76.9 µM.

Turning to `CCOC(=O)C1CCCN(C(=O)c2cccs2)C1` (stereo not drawn), the Potency is inactive: > 76.9 µM.

`CCOC(=O)c1cn(-c2ccccc2)nc1-c1ccncc1`: the Potency was inactive: > 76.9 µM.

For `CCCN1C2=NS(=O)(=O)CCN2c2ccccc21`, the Potency was inactive: > 76.9 µM.

Turning to `CC(C)Cn1cc(C(=O)NCc2cccs2)c2c3ccccc3n(C)c2c1=O`, the Potency is inactive: > 76.9 µM.

Consider `O=C(C1CCCN(S(=O)(=O)c2ccc(F)cc2)C1)N(Cc1cccs1)C1CC1` (stereo not drawn), for which the Potency was inactive: > 76.9 µM.

As for `COc1ccc2c(c1)CCc1c(C(=O)N3CCOCC3)noc1-2`, the Potency is inactive: > 76.9 µM.

Consider `CCOC(=O)c1cnc(-n2cc(C)cn2)nc1NCc1ccc2c(c1)OCO2`, for which the Potency was inactive: > 76.9 µM.

With `COc1ccccc1C1C(C(=O)NCc2ccccc2)=C(C)Nc2ncnn21` (stereo not drawn), the Potency was inactive: > 76.9 µM.

With `CCOC(=O)Cc1csc(NC(=O)COc2ccc(N(C)S(=O)(=O)c3cccs3)cc2)n1`, the Potency was inactive: > 76.9 µM.

`COC(=O)CN(c1ccc(F)cc1)S(=O)(=O)c1ccccc1`: the Potency is inactive: > 76.9 µM.

As for `CCOC(=O)Nc1cc2c(cc1C(C)=O)OCO2`, the Potency was inactive: > 76.9 µM.

On to `CCC1CCCCN1CC(=O)Nc1cc(C)nn1-c1nc(C)cc(C)n1` (stereo not drawn), for which the Potency is inactive: > 76.9 µM.

`CCOc1ccccc1NC(=O)c1ccc(S(=O)(=O)N2CCOCC2)cc1`: the Potency was inactive: > 76.9 µM.

Turning to `CCn1c(C)c(C(C)=O)c(N2CCN(C(=O)c3ccco3)CC2)nc1=S`, the Potency was inactive: > 76.9 µM.

`COc1ccc(Cn2c(=O)[nH]c3cc(C(=O)NCCCN4CCCC4)ccc3c2=O)cc1`: the Potency was inactive: > 76.9 µM.

Turning to `Cc1cccc(N(C)C(=O)c2coc(=O)c3ccccc23)c1`, the Potency was inactive: > 76.9 µM.

For `Cc1ccccc1NS(=O)(=O)c1ccc2[nH]cc(C(=O)N(C)Cc3ccco3)c(=O)c2c1`, the Potency was inactive: > 76.9 µM.

For `COCCCNC(=O)c1cn(C)c(=O)c2cc(OC)c(OC)cc12`, the Potency is inactive: > 76.9 µM.

Take `Cc1ccnc(NC(=O)CCC(=O)N(CC(=O)NC2CCCCC2)c2ccc3c(c2)OCO3)c1`: the Potency was inactive: > 76.9 µM.

For the compound `CC1CCCCC1NC(=O)CSc1nnc(-c2ccccc2)n1N` (stereo not drawn), the Potency was inactive: > 76.9 µM.

As to `COc1ccc(Oc2nc(C)cc(C)c2C#N)cc1`, the Potency was inactive: > 76.9 µM.

Regarding `Cc1nn(CC(=O)Nc2nnc(CC(=O)N3CCCC3)s2)c(=O)c2ccccc12`, the Potency is inactive: > 76.9 µM.

Turning to `Cc1cc(OCC(=O)Nc2ccc3c(c2)OCCO3)ccc1Cl`, the Potency is inactive: > 76.9 µM.

As for `CCCn1c(SCC(=O)O)nc2ccccc21`, the Potency is inactive: > 76.9 µM.

On to `COc1ccc(OCCN2CCN(C3CC(=O)N(CCC(C)C)C3=O)CC2)cc1` (stereo not drawn), for which the Potency is inactive: > 76.9 µM.

Regarding `Cc1ccc(C)c(NC(=O)CS(=O)(=O)c2cn(C)c3ccccc23)c1`, the Potency is inactive: > 76.9 µM.

As to `O=C(CS(=O)(=O)Cc1ccccc1)NCC1CCCO1` (stereo not drawn), the Potency was inactive: > 76.9 µM.

For the compound `CC(C)c1nc2oc3c(N4CCNCC4)ncnc3c2c2c1CCC2`, the Potency was inactive: > 76.9 µM.

Consider `Cc1ccc(NC2=NCC(=O)N2Cc2ccc3c(c2)OCO3)cc1`, for which the Potency is inactive: > 76.9 µM.

For the compound `COCc1nnc(NC(=O)c2ccc(S(=O)(=O)N(C)C3CCCCC3)cc2)o1`, the Potency entry was “inactive”.

With `CCOC(=O)N1CCN(C(=O)c2ccc(CNS(=O)(=O)c3ccc(OC)cc3)cc2)CC1`, the Potency was inactive: > 76.9 µM.

In the case of `Cc1ccc2c(c1)c1c3n2CCN(C(=O)Cn2c(-c4ccccc4)noc2=O)C3CCC1` (stereo not drawn), the Potency is inactive: > 76.9 µM.

As for `Cc1nn(C(=O)c2cccs2)c(C)c1CN1C(=O)c2ccccc2C1=O`, the Potency was inactive: > 76.9 µM.
